PubChem BioAssay (NCI)
Where “and” joins values, the source holds several entries; their conditions need not be identical. Identical values can stand only once.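 Each compound was tested at five concentrations against cells in 96-well plates for 48 hours. GI50 marks 50% less growth. Definition used: TGI = concentration required for complete inhibition of growth.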

What follows are molecules tested on NCI-H322M lung (assay: DTP human tumour cell line panel, 48 h).

Point of comparison: `O=Cc1ccc(-c2ccc(-c3nc4ccccc4[nH]3)cc2)s1`, TGI 57.7 µM. Against it:
- O=C(/C=C/c1ccc(O)c(O)c1)OC1C[C@@](O)(C(=O)O)C[C@@H](O)[C@H]1OC(=O)/C=C/c1ccc(O)c(O)c1 (stereo partly specified) — higher, > 100 µM
- C1CCC(OCc2nnn3c2CCC3)OC1 (stereo unspecified) — higher, > 100 µM
- O=C(Nc1ccc(Cl)cc1)NS(=O)(=O)c1coc2ccccc2c1=O — not separable, > 10 µM
- NC(=O)/C(=C\c1ccncc1)c1cccc2ccccc12 — higher, > 100 µM
- c1ccc(N=C(N2CCOCC2)N(CCN2CCOCC2)c2ccccc2)cc1 — higher, > 100 µM
- Cc1ccccc1[P+](C)(c1ccccc1C)c1ccccc1C — within 1.5-fold, 48.5 µM
- Cc1ccc2nc(N/N=C/c3ccc(C)s3)cc(C)c2c1 — 3.4-fold lower, 17.2 µM
- CC1C(=NO)C(C)C(c2ccccc2)N(N=O)C1c1ccccc1 (stereo unspecified) — 1.6-fold lower, 36.1 µM
- O=C(/C=C/c1ccc(O)c(O)c1)OCc1ccccc1 — within 1.5-fold, 67.4 µM
- CC(C)N(C(=O)C1(C)CC1)C(C)C — higher, > 100 µM
- CCCCCCCCCCCCCCCCOCC(CN(C)CCN(C)C)OCCCCCCCCCCCCCCCC (stereo unspecified) — higher, > 100 µM
- CCOC(=O)/C(C=Nc1c(C)n(C)n(-c2ccccc2)c1=O)=C(/O)c1ccccc1 — higher, > 100 µM
- COC(=O)C(Cc1cnc[nH]1)NC(=O)CNC(=O)CCCn1c(=O)c2c3ccccc3n(C)c2n2nnc(-c3ccccc3)c12 (stereo unspecified) — higher, > 100 µM
- Cc1cc2nc3c(C#N)c(-c4ccccc4)/c(=C\Nc4ccc(Cl)cc4)c(=O)n3c2cc1C — higher, > 100 µM
- O=Nc1ccc(O)c2ccccc12 — 2.2-fold lower, 26.7 µM
- CC1(C)C=Cc2c(cc3oc4ccc5c(c4c(=O)c3c2O)C=CC(C)(C)O5)O1 — higher, > 100 µM
- COc1ccc(CC2c3cc(OC)c(OC)c(OC)c3CC[N+]2(C)C)cc1Oc1ccc(CC2c3cc4c(c(OC)c3CC[N+]2(C)C)OCO4)cc1 (stereo unspecified) — higher, > 100 µM
- NC(=O)NC(=O)CCC(NS(=O)(=O)c1ccccc1)C(=O)NC(N)=O (stereo unspecified) — higher, > 100 µM
- Cc1cc(C(=O)Nc2nc3cccc(Cl)c3n2[C@@H]2CCCCN(C(=O)/C=C/CN(C)C)C2)ccn1 — 3-fold lower, 19.4 µM
- Cc1cc(N)ccc1N=Nc1ccc(S(=O)(=O)CCOS(=O)(=O)O)cc1 — 1.8-fold lower, 31.2 µM
- Cc1ncc(C(=O)Nc2ccc(CN3CCN(C)CC3)c(C(F)(F)F)c2)cc1C#Cc1cnc(N)c2cnccc12 — 4.7-fold lower, 12.2 µM
- CCN(CC)CCCC(C)Nc1cc(-c2ccc(C(F)(F)F)cc2)c(C#N)c2nc3ccccc3n12 (stereo unspecified) — 5.4-fold lower, 10.6 µM
- C=C(C)CNC(=S)N(N)c1ccc(OC)cc1 — higher, > 100 µM
- CC1=C(C)CC(C#N)(C#N)C(C#N)(C#N)C1 — not separable, > 10 µM
- C=CC(CBr)CCC(Br)C(C)(C)Br (stereo unspecified) — not separable, > 10 µM
- COc1cc(Br)c(CC2(C#N)c3ccccc3C3C(N2C(=O)c2ccccc2)C3(Cl)Cl)cc1OC (stereo unspecified) — higher, > 65.5 µM
- COC(=O)[C@H]1C(=O)[C@@]2(C)[C@H]([C@H](OC(=O)c3ccccc3)[C@]3(O)C[C@H](OC(=O)[C@H](O)[C@@H](NC(=O)c4ccc(F)cc4)c4ccccc4)C(C)=C1C3(C)C)[C@]1(OC(C)=O)CO[C@@H]1C[C@@H]2O — 2.4-fold lower, 24.4 µM
- O=C1CCCC2=C1CC1=C(CCCC1=O)N2c1ccccc1C(=O)O — higher, > 100 µM
- Cc1c(C#N)c(N)[nH]c(=S)c1C#N — higher, > 100 µM
- CC(C)(C)N1C(=O)c2ccccc2C1(O)C(F)(F)F (stereo unspecified) — higher, > 100 µM
- CCOC(=O)C(NC(=O)C(CCCCNP(=O)(OCC)OCC)NC(=O)C(C)NC(C)=O)C(C)C (stereo unspecified) — higher, > 100 µM
- CCC(=O)C1(c2ccccc2)CCN(C)CC1 — higher, > 100 µM
- CCc1c2c(nc3cc4c(c(N)c13)OCO4)-c1cc3c(c(=O)n1C2)COC(=O)[C@]3(O)CC — higher, > 100 µM
- CC(C)(C)OC(=O)[C@@H]1CCC(=S)N1Cc1ccccc1 — higher, > 100 µM
- COc1ccc(/C=N/N=C(\N)NO)c(Cl)c1O — higher, > 100 µM
- CCCc1cc(=O)oc2c(C=O)c(O)cc(O)c12 — within 1.5-fold, 74.7 µM
- CC1=CC(=O)CC(C)(C)C1(O)/C=C/C(C)=C/C(=O)O (stereo unspecified) — higher, > 100 µM
- COc1c2c3ccccc3nc-2n(C)c2ccccc12 — 1.7-fold lower, 34.2 µM
- O=c1c(-c2ccccc2)c2oc(c1-c1ccccc1)CS(=O)(=O)CCC2 — higher, > 100 µM
- CCSC(SCC)c1cc2c(cc1Br)OCO2 — within 1.5-fold, 72.7 µM
- Cc1cccc(NC(=S)Nc2ccc([N+](=O)[O-])cc2)n1 — higher, > 100 µM
- CC(=O)OCc1ccc2oc(=O)c(C(=O)Oc3cccc(Cl)c3)cc2c1 — within 1.5-fold, 51.5 µM
- O=C(CSc1nc2ccccc2nc1-c1ccccc1)Nc1ccc(Cl)cc1 — higher, > 100 µM

Point of comparison: `C[C@H](N)C(=O)N[C@@H]1[C@H]2C(=C(O)C[C@@H](O)[C@@H]2O)C(=O)O[C@]1(C)C(Cl)Cl`, GI50 0.261 µM. Against it:
- COC(=O)C(Cc1cnc[nH]1)NC(=O)CNC(=O)CCCn1c(=O)c2c3ccccc3n(C)c2n2nnc(-c3ccccc3)c12 (stereo unspecified) — higher, > 100 µM
- O=Nc1ccc(O)c2ccccc12 — 47-fold higher, 12.3 µM
- Cc1cc(C(=O)Nc2nc3cccc(Cl)c3n2[C@@H]2CCCCN(C(=O)/C=C/CN(C)C)C2)ccn1 — within 1.5-fold, 0.265 µM
- Cc1ncc(C(=O)Nc2ccc(CN3CCN(C)CC3)c(C(F)(F)F)c2)cc1C#Cc1cnc(N)c2cnccc12 — 4.3-fold lower, 0.0611 µM
- CCN(CC)CCCC(C)Nc1cc(-c2ccc(C(F)(F)F)cc2)c(C#N)c2nc3ccccc3n12 (stereo unspecified) — 12-fold higher, 3.08 µM
- COC(=O)[C@H]1C(=O)[C@@]2(C)[C@H]([C@H](OC(=O)c3ccccc3)[C@]3(O)C[C@H](OC(=O)[C@H](O)[C@@H](NC(=O)c4ccc(F)cc4)c4ccccc4)C(C)=C1C3(C)C)[C@]1(OC(C)=O)CO[C@@H]1C[C@@H]2O — 15-fold lower, 0.0172 µM
- O=Cc1ccc(-c2ccc(-c3nc4ccccc4[nH]3)cc2)s1 — 77-fold higher, 20.1 µM
- COc1c2c3ccccc3nc-2n(C)c2ccccc12 — 27-fold higher, 7.06 µM
- O=C(CSc1nc2ccccc2nc1-c1ccccc1)Nc1ccc(Cl)cc1 — higher, > 100 µM

In the case of `C[C@H](N)C(=O)N[C@@H]1[C@H]2C(=C(O)C[C@@H](O)[C@@H]2O)C(=O)O[C@]1(C)C(Cl)Cl`, the TGI is reported as 2.46 µM and 1.68 µM.

For `CCc1c2c(nc3cc4c(c(N)c13)OCO4)-c1cc3c(c(=O)n1C2)COC(=O)[C@]3(O)CC`, the GI50 was 0.0153 µM and 0.0444 µM.
